Assay results published in PubChem BioAssay AID485281 (National Center for Advancing Translational Sciences (NCATS), 2010).
Screen size: about 350,000 compounds; about 260 (0.074%) were called active. The shares of active, inactive and inconclusive entries below differ from those in the screen. The call rests on the fitted dose curve; in most records, active means well fitted inhibition curve with a large enough effect; inconclusive means small, poorly fitted or top-dose-only effect; inactive means no such curve, though single readings can be large or run the other way. Potencies of inconclusive entries are doubtful fits and often do not repeat.
Further: nearly all actives have a fitted effect of over 20% in size.
On the % scale 0 is the no-effect control and ±100 the full control effect; potency means the concentration at half of the fitted maximal effect; tags describe the fitted curve by direction and shape.

Each compound was assayed against Ferritin light chain (Equus caballus) (UniProt P02791) (assay: qHTS Assay for Identification of Novel General Anesthetics). Conditions: apoferritin/1-aminoanthracene competitive binding, fluorescence; activity change, negative = displacement: at 77.5 µM (top of the series).
UniProt P02791, sequence (P02791 whole entry, looked up): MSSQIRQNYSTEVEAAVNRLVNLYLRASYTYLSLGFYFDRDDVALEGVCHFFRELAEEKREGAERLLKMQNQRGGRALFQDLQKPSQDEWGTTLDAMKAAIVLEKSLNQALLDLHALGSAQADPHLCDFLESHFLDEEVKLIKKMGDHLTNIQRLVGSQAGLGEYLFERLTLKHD
Procedure, shortened: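 Horse-spleen apoferritin (10 uM) was mixed with 50% saturated 1-aminoanthracene in PBS, exposed to compounds for 10 min at room temperature, and read for fluorescence (ex 380 nm, em 535 nm). Competitive displacement was fitted with a four-parameter Hill equation.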
O=C(COc1ccccc1)NCC(=O)N/N=C/c1cccs1 was tested, and the Potency was inconclusive: 6.31 µM [inhibitor, full curve]. In the case of COc1ccc(Cc2nnc(CCc3ccccc3)s2)cc1, the Potency is reported as inconclusive: 50.1 µM [inhibitor, single point]. COc1ccccc1-n1c(SCC(=O)Nc2ccccc2C)nc(O)cc1=O was tested, and the “activity change, negative = displacement” value was inactive: -19.6%. With O=C(CCC(=O)Nc1ccc(Cl)cc1Cl)NNC(=O)[C@@H]1CCCC[C@@H]1C(=O)O the Potency was inconclusive: 25.1 µM [inhibitor, partial curve]. In the case of Cc1cc(NC(=O)CSCc2ccccc2)no1, the Potency is reported as inconclusive: 35.5 µM [inhibitor, partial curve]. In the case of COc1cccc(-c2cc(C(=O)Nc3ccc(F)cc3)[nH]n2)c1, the “activity change, negative = displacement” value is reported as inactive: 1.59%. With O=C(c1cc(COc2ccc3c(c2)CCCC3)on1)N1CCCC1 the Potency was inconclusive: 22.4 µM [inhibitor, partial curve]. In the case of COc1ccc2c(c1)CC/C2=N\OC(=O)c1ccccc1OC, the “activity change, negative = displacement” value is reported as inactive: -22.6%. CCc1ccc(NC(=O)C2(C)Cc3ccccc3C(=O)O2)cc1 (configuration not stated) was tested, and the Potency was inconclusive: 12.6 µM [inhibitor, partial curve]. CCn1c(CNc2ccc(OC)cc2)nnc1SCC(=O)N1CCCc2ccccc21 was tested, and the Potency was inconclusive: 35.5 µM [inhibitor, partial curve]. For COc1ccc(CCNC(=O)C2CC(=O)N(c3ccc(Br)cc3)C2)cc1OC (configuration not stated), the “activity change, negative = displacement” value was inactive: -4.43%. In the case of CCC(c1nnc(SCCNCCO)n1CCN1CCOCC1)N(C)C (configuration not stated), the “activity change, negative = displacement” value is reported as inactive: -10.5%. Cc1cc(C)cc(OCCSc2nc(-c3ccc(C(C)(C)C)cc3)nc3cc(=O)[nH]n23)c1 was tested, and the Potency was inconclusive: 15.8 µM [inhibitor, partial curve]. For CCOC(=O)CN1C(=O)C(O)(CC(=O)c2cccc(OC)c2)c2ccccc21 (configuration not stated), the Potency was inconclusive: 39.8 µM [inhibitor, partial curve]. For CCOc1cccc(-c2c(C(=O)N/N=C(\C)c3ccccn3)nnn2-c2nonc2N)c1, the Potency was inconclusive: 35.5 µM [inhibitor, partial curve]. For Cc1ccc(OCC(=O)N2CCc3ccccc3C2)c(C)c1, the Potency was inconclusive: 35.5 µM [inhibitor, single point]. In the case of CC(=O)N1CCCc2cc(S(=O)(=O)N(CC(C)C)CC(C)C)ccc21, the Potency is reported as inconclusive: 35.5 µM [inhibitor, partial curve]. With O=C(Cn1nc(C(F)(F)F)c2c1CCC2)N1CCN(c2ccccc2)CC1 the Potency was inconclusive: 28.2 µM [inhibitor, single point]. For O=C(NCc1ccco1)c1ccc2c(c1)C(=O)N(Cc1ccccc1)C2=O, the Potency was inconclusive: 56.2 µM [inhibitor, single point]. In the case of CC1CCN(S(=O)(=O)c2ccc(S(=O)(=O)NCc3ccccc3)cc2)CC1, the “activity change, negative = displacement” value is reported as inactive: -2.64%. For Cc1cc(C)n(CC(O)COc2ccc(C(C)C)c(C)c2)n1 (configuration not stated), the Potency was inconclusive: 28.2 µM [inhibitor, partial curve]. For CC(C)[C@@H]1NC(=O)N(c2ccc(Oc3ccccc3)cc2)C1=O, the Potency was inconclusive: 35.5 µM [inhibitor, partial curve]. With O=C(COC(=O)c1cncc(Br)c1)NC1CCCCCC1 the Potency was inconclusive: 31.6 µM [inhibitor, partial curve]. With COC(=O)c1ccc(NC(=O)N2CCOCC2)cc1 the “activity change, negative = displacement” value was inactive: -7.55%. For COc1ccc(OC)c(NC(=O)c2nc(SCc3ccccc3F)ncc2Cl)c1, the “activity change, negative = displacement” value was inactive: 56.9%. With COCCN1C(=O)/C(=C/c2ccc(Oc3ccc([N+](=O)[O-])cn3)c(OC)c2)SC1=Nc1ccccc1 the “activity change, negative = displacement” value was inactive: -2.53%. O=C(c1cc2cc([N+](=O)[O-])ccc2s1)N1CCCCC1 was tested, and the Potency was inconclusive: 31.6 µM [inhibitor, single point]. With Cc1ccc(N2C(=O)c3ccccc3C2Nc2ccc(S(=O)(=O)N3CCCCC3)cc2)nc1 (configuration not stated) the “activity change, negative = displacement” value was inactive: -18.6%. In the case of CCCCN(CC)c1nc(N)c(C#N)c(CC#N)c1C#N, the Potency is reported as inconclusive: 28.2 µM [inhibitor, single point]. In the case of Cc1nc2c(C(=O)NCCC(C)C)cnn2c(C)c1Cc1c(F)cccc1Cl, the Potency is reported as inconclusive: 10 µM [inhibitor, partial curve]. In the case of CC(=O)c1nn(-c2cccc(Br)c2)cc1C(=O)c1cccc2ccccc12, the Potency is reported as inconclusive: 11.2 µM [inhibitor, partial curve]. In the case of Cc1ccccc1C(C(=O)NCc1ccco1)N(CC1CCCO1)C(=O)Cn1nnc2ccccc21 (configuration not stated), the Potency is reported as inconclusive: 0.794 µM [inhibitor, full curve, poor fit]. With Nc1n[nH]c(-c2ccc(Br)cc2)c1Cl the Potency was inconclusive: 22.4 µM [inhibitor, partial curve]. With CCOC(=O)C1CCCN(S(=O)(=O)c2ccc(S(=O)(=O)N(CC)CC)cc2)C1 (configuration not stated) the Potency was inconclusive: 35.5 µM [inhibitor, single point]. With CC[n+]1c(/C=C2/C=C(C)CC(C)(C)C2)sc2ccc(OC)cc21 the Potency was inconclusive: 35.5 µM [inhibitor, partial curve]. In the case of Cc1cc(NC(=O)CC2CCCC2)ccc1Br, the Potency is reported as inconclusive: 50.1 µM [inhibitor, single point]. O=C(N/N=C/c1cc2c(cc1Br)OCO2)c1ccccn1 was tested, and the “activity change, negative = displacement” value was inactive: 8.12%. With CCOc1ccc(-c2nnc(NC3=NCCCCC3)o2)cc1 the Potency was inconclusive: 28.2 µM [inhibitor, partial curve]. COC(=O)c1c(NC(=O)CC2Nc3ccccc3NC2=O)sc(C)c1C (configuration not stated) was tested, and the Potency was inconclusive: 44.7 µM [inhibitor, partial curve, poor fit]. With Cc1cccc(C(=O)Nc2nnc(S(=O)(=O)N3CCCCCC3)s2)c1 the Potency was inconclusive: 5.62 µM [inhibitor, full curve, poor fit]. In the case of Cc1cccc(CSC2=CS(=O)(=O)c3ccccc3N2)c1, the Potency is reported as inconclusive: 17.8 µM [inhibitor, partial curve]. COC(=O)CSCC(=O)Nc1nnc(-c2cccc(C)c2)s1 was tested, and the Potency was inconclusive: 50.1 µM [inhibitor, single point]. O=C(Nc1cccc(C(F)(F)F)c1)c1ccc(F)c(S(=O)(=O)N2CCc3ccccc3C2)c1 was tested, and the Potency was inconclusive: 3.98 µM [inhibitor, full curve]. In the case of O=C(COC(=O)c1ccc2ccccc2n1)Nc1cccc(S(=O)(=O)NC2=NCCCCC2)c1, the Potency is reported as inconclusive: 20 µM [inhibitor, partial curve]. COc1ccc(-c2nc(C)c(CCNC(=O)c3ccccc3Br)s2)cc1OC was tested, and the Potency was inconclusive: 35.5 µM [inhibitor, single point]. For Cc1nnc(SC(C)C(=O)Nc2ccc(S(=O)(=O)N3CCCCC3)cc2)s1 (configuration not stated), the Potency was inconclusive: 35.5 µM [inhibitor, partial curve]. In the case of COc1cccc(Cn2cccc(NC(=O)Nc3cccc(C#N)c3)c2=O)c1, the “activity change, negative = displacement” value is reported as inactive: 2%. In the case of CCC(C(=O)NC(C)c1ccccc1)C(=O)NC(C)c1ccccc1 (configuration not stated), the “activity change, negative = displacement” value is reported as inactive: -4.02%. With COc1ccc(C(=O)c2sc(Nc3ccc(NC(C)=O)cc3)nc2C)cc1 the Potency was inconclusive: 28.2 µM [inhibitor, single point]. With CCC(C)(C)n1nnnc1C(c1ccc(OC)c(OC)c1)N1CCN(c2ccc(OC)cc2)CC1 (configuration not stated) the Potency was inconclusive: 31.6 µM [inhibitor, partial curve]. For COc1ccc(-n2nc(C(=O)NCC(=O)NCC3COc4ccccc4O3)c3ccccc3c2=O)c(OC)c1 (configuration not stated), the Potency was inconclusive: 17.8 µM [inhibitor, partial curve]. With Nc1ccccc1C(=O)N1CCCC1 the Potency was inconclusive: 0.0071 µM [inhibitor, full curve]. O=C(NNc1nc2cc3c(cc2s1)OCO3)c1ccc(F)cc1 was tested, and the “activity change, negative = displacement” value was inactive: -7.7%. For CCCC(C)NC(=O)c1ccc2[nH]c3c(c2c1)CC(C)CC3 (configuration not stated), the Potency was inconclusive: 50.1 µM [inhibitor, partial curve]. In the case of O=C(NC(NNc1ccc([N+](=O)[O-])cc1)(C(F)(F)F)C(F)(F)F)c1ccc(Cl)cc1, the Potency is reported as inconclusive: 50.1 µM [inhibitor, single point]. In the case of O=C(Nc1ccc(O)cc1)C1CCCN1S(=O)(=O)c1ccc(F)cc1 (configuration not stated), the “activity change, negative = displacement” value is reported as inactive: -0.465%. For CCc1nc(N2CCN(C(=O)c3ccco3)CC2)c2c3c(sc2n1)CCCC3, the Potency was inconclusive: 39.8 µM [inhibitor, partial curve]. For CCc1cc(=O)[nH]c(SCc2nc(-c3ccccc3C)no2)n1, the Potency was inconclusive: 31.6 µM [inhibitor, partial curve]. Cc1nc2ccc(NC(=O)c3ccc4ccccc4n3)cc2s1 was tested, and the “activity change, negative = displacement” value was inactive: -2.54%. In the case of COc1ccc(-c2cc(C(F)(F)F)nc(SCC(=O)Nc3ccc(C(C)=O)cc3)n2)cc1, the “activity change, negative = displacement” value is reported as inactive: -7.09%. In the case of CCOC(=O)CN(C(=O)CN1CCC(n2nnc3cc(C)ccc32)CC1)c1ccccc1, the Potency is reported as inconclusive: 31.6 µM [inhibitor, partial curve]. For COCCNc1nc(SCC(=O)N2CCN(c3ccccc3OC)CC2)nc2ccccc12, the Potency was inconclusive: 14.1 µM [inhibitor, partial curve]. For Cc1ccccc1OCCNc1cc(N2CC(C)NC(C)C2)ccc1[N+](=O)[O-] (configuration not stated), the Potency was inconclusive: 31.6 µM [inhibitor, partial curve]. In the case of COc1cc(/C=C2\SC(=O)N(CCN)C2=O)ccc1OS(=O)(=O)c1cc(C)ccc1C, the Potency is reported as inconclusive: 25.1 µM [inhibitor, partial curve, poor fit]. With CC(Oc1ccc(Cl)cc1Cl)c1ccn[nH]1 (configuration not stated) the Potency was inconclusive: 28.2 µM [inhibitor, partial curve]. With CCc1nnc(NC(=O)CSc2nnc(-c3ccccc3O)n2-c2ccc(C)cc2)s1 the Potency was inconclusive: 14.1 µM [inhibitor, partial curve]. With O=C(Oc1c(CN2CCOCC2)cc(Cl)c2cccnc12)c1cccs1 the “activity change, negative = displacement” value was inactive: -10.6%.
